# Experimental data: PubChem BioAssay (NCATS)
# This list was built around the results that the source calls inconclusive (neither active nor inactive); the mix of calls is not that of the screen. Potencies of inconclusive entries are left out as doubtful fits. Active and inactive are the calls of the source. Calls follow the shape of the dose curve; as a rule, active = well fitted inhibition curve with a large enough effect; inconclusive = small, poorly fitted or top-dose-only effect; inactive = no such curve, though single readings can be large or run the other way.
# Assay: BET inhibitor-based combinations targeting novel dependencies in MECOM-rearranged (r) AML: OCI-AML3 cell line (AID 2202232); also: nearly all actives have a fitted effect of over 35% in size;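 as to viability (% of control): plate controls were DMSO vehicle wells for no effect and wells without cells for full effect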
# Details: CellTiter-Glo luminescence, 48 h; Potency: OCI-AML3 viability; viability (% of control): at 46 µM (top of the series)
# Outline: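 Each compound was tested at eleven concentrations on cells seeded at 500/well. After two days' incubation, ATP-based luminescence reported viability; responses relative to DMSO and blank wells yielded AUC and cell-line-centred Z-AUC.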
# Potency is read from the fitted curve at half-maximal effect; tags tell the direction and shape of the fitted curve.
SMILES,Potency,viability (% of control)
COC1CCC(N2C(=O)CNc3ncc(-c4ccc(C(C)(C)O)nc4)nc32)CC1 (stereo unspecified),active: 5.25 µM,
COc1cccc2c1C(=O)c1c(O)c3c(c(O)c1C2=O)C[C@@](O)(/C(CO)=N/NC(=O)CCCCCN1C(=O)C=CC1=O)C[C@@H]3O[C@H]1C[C@H](N)[C@H](O)[C@H](C)O1,active: 0.417 µM,
N[C@@H](CC(=O)N1CCn2c(nnc2C(F)(F)F)C1)Cc1cc(F)c(F)cc1F,,inactive: 84.2%
CCc1cc(C(N)=S)ccn1,,inactive: 120%
CCC(C)N(C)C(=O)c1cc2ccccc2c(-c2ccccc2Cl)n1 (stereo unspecified),,inactive: 96.9%
CCc1c(-c2ccccc2C)nc2c(C#N)c[nH]n2c1=O,"inconclusive [inhibitor, partial curve, poor fit]",
CN(C(=O)CNC(=O)/C=C/c1cccc(Cl)c1)C1CCS(=O)(=O)CC1,"inconclusive [inhibitor, full curve]",
C=CC[C@@H]1/C=C(\C)C[C@H](C)C[C@H](OC)[C@H]2O[C@@](O)(C(=O)C(=O)N3CCCC[C@H]3C(=O)O[C@H](/C(C)=C/[C@@H]3CC[C@@H](O)[C@H](OC)C3)[C@H](C)[C@@H](O)CC1=O)[C@H](C)C[C@@H]2OC,"inconclusive [inhibitor, partial curve]",
O=c1[nH]c(=O)n(C2CCCO2)cc1F (stereo unspecified),,inactive: 91.7%
CCOC(=O)c1ccc(C#Cc2ccc3c(c2)C(C)(C)CCS3)nc1,"inconclusive [inhibitor, partial curve, poor fit]",
O=C(c1cncc(Br)c1)N1CCC(N2CCCC2)CC1,,inactive: 99.7%
